# Assay results as given in patent US20170274014A1, “COMBINATIONS OF LOW, IMMUNE ENHANCING, DOSES OF MTOR INHIBITORS AND CARS” (Novartis AG, priority 2014, published 2017).
# Assay: Questionnaires on energy and exercise ability one year after dosing
# Conditions: 0.5 mg daily dosing cohort
smiles,measurement,value
"CO[C@H]1C[C@@H]2CC[C@@H](C)[C@@](O)(O2)C(=O)C(=O)N2CCCC[C@H]2C(=O)O[C@H]([C@H](C)C[C@@H]2CC[C@@H](OCCO)[C@H](OC)C2)CC(=O)[C@H](C)/C=C(\C)[C@@H](O)[C@@H](OC)C(=O)[C@H](C)C[C@H](C)/C=C/C=C/C=C/1C [RAD001, (1R,9S,12S,15R,16E,18R,19R,21R,23S,24E,26E,28E,30S,32S,35R)-1,18-dihydroxy-12-{(1R)-2-[(1S,3R,4R)-4-(2-hydroxyethoxy)-3-methoxycyclohexyl]-1-methylethyl}-19,30-dimethoxy-15,17,21,23,29,35-hexamethyl-11,36-dioxa-4-aza-tricyclo[30.3.1.04,9]hexatriaconta-16,24,26,28-tetraene-2,3,10,14,20-pentaone]",Self-reported energy and exercise ability as compared to placebo,increased energy and exercise ability
